No constants are given. Whether binding was seen depends on the method and setting. For part of these data: In cells and extracts the contact can be indirect. Some results given as binding are weak or reduced against the parent protein; the word gives no strength. For part of these data: Tags and fused reporters may be left off the sequences shown.
T1: IHO1_C7Δ, endogenous in testis extracts of Iho1^C7Δ/C7Δ mice (mouse (endogenous in testis)) (UniProt Q6PDM4)
T1 sequence: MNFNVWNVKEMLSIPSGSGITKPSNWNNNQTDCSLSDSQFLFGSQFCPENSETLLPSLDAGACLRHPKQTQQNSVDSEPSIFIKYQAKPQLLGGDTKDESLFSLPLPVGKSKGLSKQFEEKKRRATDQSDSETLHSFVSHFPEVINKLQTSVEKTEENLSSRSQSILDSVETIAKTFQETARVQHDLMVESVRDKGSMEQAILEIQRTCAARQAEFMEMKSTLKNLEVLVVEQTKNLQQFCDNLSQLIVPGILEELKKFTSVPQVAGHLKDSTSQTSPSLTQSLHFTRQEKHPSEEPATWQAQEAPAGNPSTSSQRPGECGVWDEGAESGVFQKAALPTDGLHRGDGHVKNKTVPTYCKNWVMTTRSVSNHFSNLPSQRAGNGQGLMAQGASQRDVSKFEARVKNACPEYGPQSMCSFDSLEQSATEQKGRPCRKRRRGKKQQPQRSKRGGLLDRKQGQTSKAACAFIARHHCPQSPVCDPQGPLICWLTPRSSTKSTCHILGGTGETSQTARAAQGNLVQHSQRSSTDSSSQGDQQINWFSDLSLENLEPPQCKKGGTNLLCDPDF

T2: HORMAD1, yeast two-hybrid fusion (mouse) (UniProt Q9D5T7)
T2 sequence: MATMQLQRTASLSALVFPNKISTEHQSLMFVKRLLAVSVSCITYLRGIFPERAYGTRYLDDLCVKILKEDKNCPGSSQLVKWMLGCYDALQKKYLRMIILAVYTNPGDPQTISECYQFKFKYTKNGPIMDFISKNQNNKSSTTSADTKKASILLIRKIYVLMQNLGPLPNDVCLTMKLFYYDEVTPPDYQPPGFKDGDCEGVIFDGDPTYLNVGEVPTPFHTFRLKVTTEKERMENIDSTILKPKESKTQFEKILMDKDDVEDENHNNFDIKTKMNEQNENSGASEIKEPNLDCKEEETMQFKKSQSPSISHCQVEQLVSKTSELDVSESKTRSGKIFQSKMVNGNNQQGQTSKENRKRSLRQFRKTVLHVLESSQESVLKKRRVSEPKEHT

T3: DBF4, yeast two-hybrid fusion (mouse) (UniProt Q9QZ41)
T3 sequence: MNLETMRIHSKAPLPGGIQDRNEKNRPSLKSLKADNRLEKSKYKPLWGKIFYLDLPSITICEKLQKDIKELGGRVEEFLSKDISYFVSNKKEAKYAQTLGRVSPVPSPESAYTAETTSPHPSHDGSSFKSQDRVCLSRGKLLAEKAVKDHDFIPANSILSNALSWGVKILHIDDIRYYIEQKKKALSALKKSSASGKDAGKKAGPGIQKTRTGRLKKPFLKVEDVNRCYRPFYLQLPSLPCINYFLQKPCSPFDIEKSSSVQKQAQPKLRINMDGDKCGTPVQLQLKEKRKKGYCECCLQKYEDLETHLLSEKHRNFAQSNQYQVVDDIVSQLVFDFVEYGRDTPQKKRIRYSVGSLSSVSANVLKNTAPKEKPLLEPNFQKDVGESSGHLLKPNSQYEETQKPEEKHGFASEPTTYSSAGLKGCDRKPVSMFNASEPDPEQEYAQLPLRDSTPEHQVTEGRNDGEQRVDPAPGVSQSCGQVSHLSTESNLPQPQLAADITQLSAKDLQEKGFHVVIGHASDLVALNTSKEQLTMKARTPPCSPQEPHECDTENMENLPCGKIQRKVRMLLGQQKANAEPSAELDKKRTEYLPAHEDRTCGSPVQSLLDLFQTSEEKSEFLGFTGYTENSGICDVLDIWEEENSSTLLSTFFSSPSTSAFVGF

T4: IHO1, endogenous wild type in mouse testis extracts (mouse (endogenous in testis)) (UniProt Q6PDM4)
T4 sequence: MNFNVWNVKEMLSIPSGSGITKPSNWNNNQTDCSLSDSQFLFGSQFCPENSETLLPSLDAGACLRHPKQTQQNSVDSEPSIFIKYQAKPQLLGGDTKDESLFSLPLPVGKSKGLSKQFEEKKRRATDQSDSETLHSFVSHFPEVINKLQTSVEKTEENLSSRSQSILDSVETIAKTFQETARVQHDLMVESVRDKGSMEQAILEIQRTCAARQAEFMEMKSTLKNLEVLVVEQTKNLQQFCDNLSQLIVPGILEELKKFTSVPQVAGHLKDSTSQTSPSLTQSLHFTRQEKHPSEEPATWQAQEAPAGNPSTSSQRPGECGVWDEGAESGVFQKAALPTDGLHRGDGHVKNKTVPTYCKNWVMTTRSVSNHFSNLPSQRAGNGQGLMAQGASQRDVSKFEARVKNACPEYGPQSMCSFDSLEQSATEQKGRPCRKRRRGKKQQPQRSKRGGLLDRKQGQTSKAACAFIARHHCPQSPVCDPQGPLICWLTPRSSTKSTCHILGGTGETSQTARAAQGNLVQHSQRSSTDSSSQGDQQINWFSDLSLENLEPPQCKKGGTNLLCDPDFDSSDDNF


Key:
[1] = target: T1, IHO1_C7Δ, endogenous in testis extracts of Iho1^C7Δ/C7Δ mice (mouse (endogenous in testis)); test: co-IP; anti-IHO1 or anti-HORMAD1 antibodies cross-linked to Protein A Dynabeads; benzonase-treated total testis lysates of 13 dpp wild-type or Iho1^C7Δ/C7Δ mice; 500 mM NaCl, 1% Triton X-100, 1% NP40, 0.5% NaDOC; overnight at 4 °C; immunoblot
[2] = target: T2, HORMAD1, yeast two-hybrid fusion (mouse); test: two-hybrid; mouse proteins as bait and prey co-transformed into Y2HGold yeast; growth on -Leu -Trp -Ade -His plates for 2-7 days
[3] = target: T3, DBF4, yeast two-hybrid fusion (mouse); test: as above
[4] = target: T4, IHO1, endogenous wild type in mouse testis extracts (mouse (endogenous in testis)); test: co-IP; anti-IHO1 or anti-HORMAD1 antibodies cross-linked to Protein A Dynabeads; benzonase-treated total testis lysates of 13 dpp wild-type or Iho1^C7Δ/C7Δ mice; 500 mM NaCl, 1% Triton X-100, 1% NP40, 0.5% NaDOC; overnight at 4 °C; immunoblot

binding [2] | Binder | also measured
– | SYCP3, endogenous in mouse testis extracts (protein, UniProt P70281 1-254) MLRGCGDSDSSPEPLSKHLKMVPGGRKHSGKSGKPPLVDQPKKAFDFEKDDKDLSGSEEDVADEKAPVIDKHGKKRSAGIIEDVGGEVQNMLEKFGADINKALLAKRKRIEMYTKASFKASNQKIEQIWKTQQEEIQKLNNEYSQQFMNVLQQWELDIQKFEEQGEKLSNLFRQQQKIFQQSRIVQSQRMFAMKQIHEQFIKSLEDVEKNNDNLFTGTQSELKKEMAMLQKKVMMETQQQEMANVRKSLQSMLF | binding [1]: no binding
binds | IHO1 without the first 358 amino acids, yeast two-hybrid fusion (domain or fragment, UniProt Q6PDM4 359-574) KNWVMTTRSVSNHFSNLPSQRAGNGQGLMAQGASQRDVSKFEARVKNACPEYGPQSMCSFDSLEQSATEQKGRPCRKRRRGKKQQPQRSKRGGLLDRKQGQTSKAACAFIARHHCPQSPVCDPQGPLICWLTPRSSTKSTCHILGGTGETSQTARAAQGNLVQHSQRSSTDSSSQGDQQINWFSDLSLENLEPPQCKKGGTNLLCDPDFDSSDDNF | –
binds | IHO1, wild type (1-574), yeast two-hybrid fusion (protein, UniProt Q6PDM4 1-574) MNFNVWNVKEMLSIPSGSGITKPSNWNNNQTDCSLSDSQFLFGSQFCPENSETLLPSLDAGACLRHPKQTQQNSVDSEPSIFIKYQAKPQLLGGDTKDESLFSLPLPVGKSKGLSKQFEEKKRRATDQSDSETLHSFVSHFPEVINKLQTSVEKTEENLSSRSQSILDSVETIAKTFQETARVQHDLMVESVRDKGSMEQAILEIQRTCAARQAEFMEMKSTLKNLEVLVVEQTKNLQQFCDNLSQLIVPGILEELKKFTSVPQVAGHLKDSTSQTSPSLTQSLHFTRQEKHPSEEPATWQAQEAPAGNPSTSSQRPGECGVWDEGAESGVFQKAALPTDGLHRGDGHVKNKTVPTYCKNWVMTTRSVSNHFSNLPSQRAGNGQGLMAQGASQRDVSKFEARVKNACPEYGPQSMCSFDSLEQSATEQKGRPCRKRRRGKKQQPQRSKRGGLLDRKQGQTSKAACAFIARHHCPQSPVCDPQGPLICWLTPRSSTKSTCHILGGTGETSQTARAAQGNLVQHSQRSSTDSSSQGDQQINWFSDLSLENLEPPQCKKGGTNLLCDPDFDSSDDNF | binding [3]: binds
binds | IHO1 S476A T490A, yeast two-hybrid fusion (protein, UniProt Q6PDM4 1-574) MNFNVWNVKEMLSIPSGSGITKPSNWNNNQTDCSLSDSQFLFGSQFCPENSETLLPSLDAGACLRHPKQTQQNSVDSEPSIFIKYQAKPQLLGGDTKDESLFSLPLPVGKSKGLSKQFEEKKRRATDQSDSETLHSFVSHFPEVINKLQTSVEKTEENLSSRSQSILDSVETIAKTFQETARVQHDLMVESVRDKGSMEQAILEIQRTCAARQAEFMEMKSTLKNLEVLVVEQTKNLQQFCDNLSQLIVPGILEELKKFTSVPQVAGHLKDSTSQTSPSLTQSLHFTRQEKHPSEEPATWQAQEAPAGNPSTSSQRPGECGVWDEGAESGVFQKAALPTDGLHRGDGHVKNKTVPTYCKNWVMTTRSVSNHFSNLPSQRAGNGQGLMAQGASQRDVSKFEARVKNACPEYGPQSMCSFDSLEQSATEQKGRPCRKRRRGKKQQPQRSKRGGLLDRKQGQTSKAACAFIARHHCPQAPVCDPQGPLICWLAPRSSTKSTCHILGGTGETSQTARAAQGNLVQHSQRSSTDSSSQGDQQINWFSDLSLENLEPPQCKKGGTNLLCDPDFDSSDDNF | –
no binding | IHO1 S569A S570A, yeast two-hybrid fusion (protein, UniProt Q6PDM4 1-574) MNFNVWNVKEMLSIPSGSGITKPSNWNNNQTDCSLSDSQFLFGSQFCPENSETLLPSLDAGACLRHPKQTQQNSVDSEPSIFIKYQAKPQLLGGDTKDESLFSLPLPVGKSKGLSKQFEEKKRRATDQSDSETLHSFVSHFPEVINKLQTSVEKTEENLSSRSQSILDSVETIAKTFQETARVQHDLMVESVRDKGSMEQAILEIQRTCAARQAEFMEMKSTLKNLEVLVVEQTKNLQQFCDNLSQLIVPGILEELKKFTSVPQVAGHLKDSTSQTSPSLTQSLHFTRQEKHPSEEPATWQAQEAPAGNPSTSSQRPGECGVWDEGAESGVFQKAALPTDGLHRGDGHVKNKTVPTYCKNWVMTTRSVSNHFSNLPSQRAGNGQGLMAQGASQRDVSKFEARVKNACPEYGPQSMCSFDSLEQSATEQKGRPCRKRRRGKKQQPQRSKRGGLLDRKQGQTSKAACAFIARHHCPQSPVCDPQGPLICWLTPRSSTKSTCHILGGTGETSQTARAAQGNLVQHSQRSSTDSSSQGDQQINWFSDLSLENLEPPQCKKGGTNLLCDPDFDAADDNF | –
no binding | IHO1, first 358 amino acids, yeast two-hybrid fusion (domain or fragment, UniProt Q6PDM4 1-358) MNFNVWNVKEMLSIPSGSGITKPSNWNNNQTDCSLSDSQFLFGSQFCPENSETLLPSLDAGACLRHPKQTQQNSVDSEPSIFIKYQAKPQLLGGDTKDESLFSLPLPVGKSKGLSKQFEEKKRRATDQSDSETLHSFVSHFPEVINKLQTSVEKTEENLSSRSQSILDSVETIAKTFQETARVQHDLMVESVRDKGSMEQAILEIQRTCAARQAEFMEMKSTLKNLEVLVVEQTKNLQQFCDNLSQLIVPGILEELKKFTSVPQVAGHLKDSTSQTSPSLTQSLHFTRQEKHPSEEPATWQAQEAPAGNPSTSSQRPGECGVWDEGAESGVFQKAALPTDGLHRGDGHVKNKTVPTYC | –
– | REC114, endogenous in mouse testis extracts (protein, UniProt Q9CWH4 1-259) MSEAGNVASGLGLPGEVSQWSLKRYGRFMLLDNVGSPGPSSEAAAAGSPTWKVFESSEESGSLVLTIVVSGHFFISQGQTLLEGFSLIGSKNWLKIVRRMDCLLFGTTIKNKSRMFRVQFSGESKEEALERCCGCVQTLAQYVTVQEPDSTTQELQQSQGPREAGESQGKDPLQQGPSLTLEQHVCMAAGAGVLQERTSVTHRAQSILAPEKLTLAYEGSSWGTEELGPFLRLCLMDQNFPAFVEEVEKELKKITGLRN | binding [4]: binds; binding [1]: binds
